Test results published in PubChem BioAssay (Tox21).
Where “and” joins values, the source holds several entries; their conditions need not be identical. Equal entries are not always repeated. The inconclusive results got no clear call from the source; some entries with a clear call stand among them for comparison. Where a call stands in place of a potency, no number is given. For some of these results: Potencies of inconclusive entries are doubtful fits and often do not repeat. Calls of active or inactive are those of the source. Unless noted, calls come from the whole dose curve; as a rule, active = well fitted curve in the direction sought with a large enough effect in the repeat runs; inconclusive = weak or mixed curves; inactive = no such curve, though single readings can be large; an effect the other way counts as inactive or inconclusive.

Legend:
[1] = qHTS assay for small molecule disruptors of the mitochondrial membrane potential - cell viability (AID 720634; calls by dose curve;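 note: human HepG2 liver cancer cells; nearly all actives have a fitted effect of over 20% in size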)
How it was run: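 HepG2 cells, 2,000 per well, attached overnight, then treated 1 hr at 37 C, 5% CO2. Viability read as ATP by CellTiter-Glo luminescence after 30 min at room temperature. Read in the same wells as the m-MPI membrane-potential dye assay.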

[2] = qHTS assay to identify small molecule agonists of the farnesoid-X-receptor (FXR) signaling pathway - cell viability counter screen (AID 743218); conditions: FXR-bla HEK293T viability, CellTiter-Glo luminescence, 16 h; viability change, negative = cytotoxic: at 62.6 µM (top of the series) unless noted; note: nearly all actives have a fitted effect of over 45% in size; note: potency is the fitted concentration of half-maximal effect
How it was run: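 FXR-UAS-bla HEK 293T cells exposed to compounds for 16 h at 37C. Cytotoxicity read in the same wells by CellTiter-Glo luminescence after 30 min at room temperature, following the beta-lactamase FRET read.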

[3] = biological target: Estrogen receptor (Homo sapiens) (UniProt P03372); test: qHTS assay to identify small molecule antagonists of the estrogen receptor alpha (ER-alpha) signaling pathway using the BG1 cell line in the presence of 0.1 nM 17-beta-estradiol (AID 1259244); note: nearly all actives have a fitted effect of over 50% in size; note: potency is the fitted concentration of half-maximal effect
Sequence of UniProt P03372 (P03372 whole entry, looked up): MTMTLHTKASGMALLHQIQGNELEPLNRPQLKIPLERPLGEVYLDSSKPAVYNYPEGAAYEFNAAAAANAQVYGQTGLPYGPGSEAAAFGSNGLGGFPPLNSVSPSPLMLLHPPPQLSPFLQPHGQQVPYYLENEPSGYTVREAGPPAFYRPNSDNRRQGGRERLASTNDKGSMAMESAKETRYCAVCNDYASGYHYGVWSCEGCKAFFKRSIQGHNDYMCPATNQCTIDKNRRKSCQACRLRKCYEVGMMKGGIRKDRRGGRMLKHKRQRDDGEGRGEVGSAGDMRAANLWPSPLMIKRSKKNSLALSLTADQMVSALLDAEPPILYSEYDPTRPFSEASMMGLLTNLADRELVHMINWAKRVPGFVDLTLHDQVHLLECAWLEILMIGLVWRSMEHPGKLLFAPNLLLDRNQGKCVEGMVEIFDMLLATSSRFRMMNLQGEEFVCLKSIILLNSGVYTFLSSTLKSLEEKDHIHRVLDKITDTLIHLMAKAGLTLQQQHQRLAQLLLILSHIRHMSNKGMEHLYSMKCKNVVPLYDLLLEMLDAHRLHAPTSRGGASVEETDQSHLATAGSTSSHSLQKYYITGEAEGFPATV
How it was run: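 VM7Luc4E2 cells (endogenous full-length ER-alpha, 4×ERE-luciferase), kept 5 days in phenol red-free, charcoal-stripped FBS medium; 4,000 cells/well. Compounds added with 0.1 nM (final) 17beta-estradiol, 22 hr at 37C; luminescence read with ONE-Glo after 30 min.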

[4] = qHTS assay to identify small molecule antagonists of the estrogen related receptor (ERR) signaling pathway from Tox21 library (AID 1224848); note: nearly all actives have a fitted effect of over 50% in size; note: potency is the fitted concentration of half-maximal effect
How it was run: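 ERR reporter cell line (from NTP) seeded 2,000 cells/well, rested 6 h at 37 C/5% CO2, then pin-dosed with compounds in DMSO. After 18 h at 37 C, ONE-Glo added; luminescence read after 30 min at room temperature.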

[5] = A CellTox Green Cytotoxicity Assay to monitor cytotoxicity in HEK293 cells - 16 hour (AID 1224888); note: nearly all actives have a fitted effect of over 35% in size; note: potency is the fitted concentration of half-maximal effect
How it was run: (§1)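 HEK293 cells, 600/well, were preincubated 5 hours and then exposed to compounds at 37 C for up to 40 hours. A cell-impermeant cyanine dye staining dead-cell DNA was read by fluorescence at 0, 8, 16, 24, 32 and 40 h time points.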

[6] = qHTS assay to identify small molecule antagonists of the estrogen receptor alpha (ER-alpha) signaling pathway using the BG1 cell line - cell viability counter screen (AID 743081); conditions: BG1Luc4E2 viability, CellTiter-Fluor, 22 h; activity change, negative = cytotoxicity: at 70.3 µM (top of the series) unless noted;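 note: compound given together with 17beta-estradiol as the ER stimulus; nearly all actives have a fitted effect of over 45% in size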; note: potency is the fitted concentration of half-maximal effect
[7] = A CellTox Green Cytotoxicity Assay to monitor cytotoxicity in HepG2 cells - 40 hour (AID 1224879); note: nearly all actives have a fitted effect of over 40% in size; note: potency is the fitted concentration of half-maximal effect
How it was run: (§2)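 HepG2 cells, 600/well, preincubated 5 h with CellTox Green dye, then exposed to Tox21 compounds in DMSO at 37 C for up to 40 h. Dead-cell DNA fluorescence read at the indicated time point.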

[8] = A CellTox Green Cytotoxicity Assay to monitor cytotoxicity in HEK293 cells - 32 hour (AID 1224881); note: potency is the fitted concentration of half-maximal effect; nearly all actives have a fitted effect of over 40% in size
How it was run: as §1

[9] = biological target: Thyrotropin receptor (Homo sapiens) (UniProt P16473); test: qHTS assay to identify small molecule agonists of the thyroid stimulating hormone receptor (TSHR) signaling pathway (AID 1224843; calls by dose curve; note: nearly all actives have a fitted effect of over 45% in size; note: potency is the fitted concentration of half-maximal effect); conditions: TSHR-HEK293 cells, cAMP HTRF, agonist mode, 30 min; activation: at 92.4 µM (top of the series) unless noted
Sequence of UniProt P16473 (P16473 whole entry, looked up): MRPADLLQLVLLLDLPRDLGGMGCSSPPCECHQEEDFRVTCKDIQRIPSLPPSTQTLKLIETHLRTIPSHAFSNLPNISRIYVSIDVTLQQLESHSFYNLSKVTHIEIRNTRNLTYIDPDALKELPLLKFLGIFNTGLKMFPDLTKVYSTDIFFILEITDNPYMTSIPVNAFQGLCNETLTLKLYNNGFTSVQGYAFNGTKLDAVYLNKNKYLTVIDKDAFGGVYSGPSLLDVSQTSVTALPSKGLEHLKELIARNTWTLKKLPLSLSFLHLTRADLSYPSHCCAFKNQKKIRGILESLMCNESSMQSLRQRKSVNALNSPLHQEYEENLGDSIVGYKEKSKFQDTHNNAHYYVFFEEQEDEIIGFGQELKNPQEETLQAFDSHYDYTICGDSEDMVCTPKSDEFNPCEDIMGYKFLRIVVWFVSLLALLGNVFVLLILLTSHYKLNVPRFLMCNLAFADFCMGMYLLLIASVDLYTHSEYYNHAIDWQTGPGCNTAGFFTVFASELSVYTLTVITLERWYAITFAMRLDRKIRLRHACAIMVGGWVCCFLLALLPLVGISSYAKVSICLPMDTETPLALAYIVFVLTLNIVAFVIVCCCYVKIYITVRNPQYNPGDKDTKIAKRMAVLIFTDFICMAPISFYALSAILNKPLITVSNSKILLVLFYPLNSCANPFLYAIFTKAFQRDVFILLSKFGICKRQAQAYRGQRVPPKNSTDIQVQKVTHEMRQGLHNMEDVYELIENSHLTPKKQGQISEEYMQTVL
How it was run: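 TSHR-HEK293 cells in agonist mode, 30 min room-temperature step, then cAMP measured by competitive HTRF (cAMP-d2 with anti-cAMP cryptate) after 1 h at room temperature. Tested at 15 concentrations in triplicate.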

[10] = biological target: Progesterone receptor (Homo sapiens) (UniProt P06401); test: qHTS assay to identify small molecule agonists of the progesterone receptor (PR) signaling pathway (AID 1346784; calls by dose curve; note: potency is the fitted concentration of half-maximal effect; nearly all actives have a fitted effect of over 30% in size); conditions: PR-UAS-bla HEK293T, beta-lactamase FRET ratio, 16 h; activation: at 92.4 µM (top of the series) unless noted
Sequence of UniProt P06401 (P06401 whole entry, looked up): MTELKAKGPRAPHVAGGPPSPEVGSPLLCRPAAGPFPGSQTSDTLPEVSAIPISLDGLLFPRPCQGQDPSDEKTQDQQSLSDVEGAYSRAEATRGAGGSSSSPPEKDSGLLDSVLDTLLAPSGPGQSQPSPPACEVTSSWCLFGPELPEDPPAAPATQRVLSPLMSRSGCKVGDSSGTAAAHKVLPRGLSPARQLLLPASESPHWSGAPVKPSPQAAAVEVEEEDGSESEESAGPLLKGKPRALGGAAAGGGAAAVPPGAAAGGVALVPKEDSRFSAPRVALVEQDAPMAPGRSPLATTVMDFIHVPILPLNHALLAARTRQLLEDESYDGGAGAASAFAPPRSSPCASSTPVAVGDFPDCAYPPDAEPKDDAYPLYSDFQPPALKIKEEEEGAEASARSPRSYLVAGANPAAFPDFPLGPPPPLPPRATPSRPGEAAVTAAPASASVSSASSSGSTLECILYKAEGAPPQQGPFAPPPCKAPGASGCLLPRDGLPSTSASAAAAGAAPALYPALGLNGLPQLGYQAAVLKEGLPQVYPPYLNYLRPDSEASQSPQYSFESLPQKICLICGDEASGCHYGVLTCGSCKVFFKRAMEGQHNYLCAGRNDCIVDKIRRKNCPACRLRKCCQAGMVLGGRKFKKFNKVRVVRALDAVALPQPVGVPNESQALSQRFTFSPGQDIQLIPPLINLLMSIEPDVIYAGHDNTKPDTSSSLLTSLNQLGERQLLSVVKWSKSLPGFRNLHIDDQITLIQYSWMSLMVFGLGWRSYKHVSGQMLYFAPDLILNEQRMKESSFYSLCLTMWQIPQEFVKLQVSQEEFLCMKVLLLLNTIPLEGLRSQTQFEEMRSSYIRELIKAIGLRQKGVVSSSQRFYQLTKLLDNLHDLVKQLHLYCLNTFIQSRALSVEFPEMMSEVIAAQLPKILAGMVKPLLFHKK
How it was run: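 Agonist mode, quantitative HTS format in a HEK 293T line expressing a UAS-controlled beta-lactamase reporter; 16 hr compound exposure at 37C in 2% charcoal-stripped FBS, then LiveBLAzer B/G FRET fluorescence.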

[11] = A CellTox Green Cytotoxicity Assay to monitor cytotoxicity in HepG2 cells - 32 hour (AID 1224883); note: nearly all actives have a fitted effect of over 50% in size; note: potency is the fitted concentration of half-maximal effect
How it was run: as §2

[12] = Human pregnane X receptor (PXR) small molecule agonists, qHTS cell viability counter screen (AID 1346977); note: nearly all actives have a fitted effect of over 50% in size; note: potency is the fitted concentration of half-maximal effect
How it was run: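 Measures live-cell protease fluorescence (CellTiter-Fluor) in PXR-Luc HepG2 cells treated 24hr with compounds at 37C. Cells had 5hr to attach before pin transfer of DMSO solutions.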

[13] = qHTS assay to identify small molecule antagonists of the estrogen receptor alpha (ER-alpha) signaling pathway using the BG1 cell line (AID 743080; calls by dose curve;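 note: BG1 cells stimulated with 17beta-estradiol alongside compound; nearly all actives have a fitted effect of over 25% in size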); conditions: BG1Luc4E2 ERE-luciferase antagonist mode, luminescence; activity change, negative = inhibition: at 70.3 µM (top of the series) unless noted
How it was run: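 Luminescence from a 4×ERE-luciferase reporter in BG1-Luc-4E2 cells served as read-out. Cells, pre-cultured 5 days in stripped-serum phenol-red-free medium, were exposed to compound with 17beta-estradiol co-stimulation for 21.5 h at 37 C.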

[14] = qHTS RealTime-Glo MT Cell Viability Assay in HEK293 cells - 0 hour (AID 1224880); note: potency is the fitted concentration of half-maximal effect; nearly all actives have a fitted effect of over 45% in size
How it was run: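 600 cells/well were plated with the nonlytic NanoLuc/prosubstrate reagent, pre-incubated 5 h, then given 23 nL of compound in DMSO. Incubation at 37 C for 40 h, with luminescence from viable-cell-reduced substrate read repeatedly from 0 h.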

[15] = A CellTox Green Cytotoxicity Assay to monitor cytotoxicity in HEK293 cells - 8 hour (AID 1224884); note: nearly all actives have a fitted effect of over 35% in size; note: potency is the fitted concentration of half-maximal effect
How it was run: as §1

[16] = qHTS assay for small molecule activators of the heat shock response signaling pathway (AID 743210; active = well fitted activation curve with a large enough effect in the signal ratio in the repeat runs, with a control signal flat, not every such curve was filed as active; inconclusive = weak or mixed curves; the % refers to the signal ratio; note: potency is the fitted concentration of half-maximal effect); conditions: HeLa HSE-bla reporter, beta-lactamase ratio, 5 h; activation: at 62.6 µM (top of the series) unless noted
How it was run: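 HSE-bla HeLa cells (beta-lactamase reporter under heat shock response elements), plated overnight, then exposed to compounds 5 h at 37 C; LiveBLAzer B/G FRET substrate added, 2.5 h at room temperature, fluorescence intensity read.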

[17] = qHTS assay to identify small molecule antagonists of the thyroid receptor (TR) signaling pathway (AID 743065); note: nearly all actives have a fitted effect of over 55% in size; note: potency is the fitted concentration of half-maximal effect
How it was run: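 GH3.TRE-Luc rat pituitary cells (two TREs driving luciferase) were dosed with compound, then stimulated with 1 nM T3 (final) for 23.5 h at 37 C. ONE-Glo luminescence was the read-out, with CellTiter-Fluor fluorescence as the cytotoxicity counter-screen.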

[18] = qHTS assay to identify small molecule agonists of the peroxisome proliferator-activated receptor delta (PPARd) signaling pathway - cell viability counter screen (AID 743211); conditions: PPARd-bla HEK293H viability, CellTiter-Glo luminescence, 17 h; activity change, negative = cytotoxicity: at 62.6 µM (top of the series) unless noted; note: nearly all actives have a fitted effect of over 55% in size; note: potency is the fitted concentration of half-maximal effect
How it was run: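 Viability of GeneBLAzer PPARd UAS-bla HEK293H cells was assessed after 17 h compound incubation at 37C, using CellTiter-Glo reagent added after the reporter read and luminescence recorded 30 min later.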

[19] = biological target: Aryl hydrocarbon receptor (Homo sapiens) (UniProt P35869); test: qHTS assay to identify small molecule that activate the aryl hydrocarbon receptor (AhR) signaling pathway (AID 743085); note: potency is the fitted concentration of half-maximal effect; nearly all actives have a fitted effect of over 15% in size
Sequence of UniProt P35869 (P35869 whole entry, looked up): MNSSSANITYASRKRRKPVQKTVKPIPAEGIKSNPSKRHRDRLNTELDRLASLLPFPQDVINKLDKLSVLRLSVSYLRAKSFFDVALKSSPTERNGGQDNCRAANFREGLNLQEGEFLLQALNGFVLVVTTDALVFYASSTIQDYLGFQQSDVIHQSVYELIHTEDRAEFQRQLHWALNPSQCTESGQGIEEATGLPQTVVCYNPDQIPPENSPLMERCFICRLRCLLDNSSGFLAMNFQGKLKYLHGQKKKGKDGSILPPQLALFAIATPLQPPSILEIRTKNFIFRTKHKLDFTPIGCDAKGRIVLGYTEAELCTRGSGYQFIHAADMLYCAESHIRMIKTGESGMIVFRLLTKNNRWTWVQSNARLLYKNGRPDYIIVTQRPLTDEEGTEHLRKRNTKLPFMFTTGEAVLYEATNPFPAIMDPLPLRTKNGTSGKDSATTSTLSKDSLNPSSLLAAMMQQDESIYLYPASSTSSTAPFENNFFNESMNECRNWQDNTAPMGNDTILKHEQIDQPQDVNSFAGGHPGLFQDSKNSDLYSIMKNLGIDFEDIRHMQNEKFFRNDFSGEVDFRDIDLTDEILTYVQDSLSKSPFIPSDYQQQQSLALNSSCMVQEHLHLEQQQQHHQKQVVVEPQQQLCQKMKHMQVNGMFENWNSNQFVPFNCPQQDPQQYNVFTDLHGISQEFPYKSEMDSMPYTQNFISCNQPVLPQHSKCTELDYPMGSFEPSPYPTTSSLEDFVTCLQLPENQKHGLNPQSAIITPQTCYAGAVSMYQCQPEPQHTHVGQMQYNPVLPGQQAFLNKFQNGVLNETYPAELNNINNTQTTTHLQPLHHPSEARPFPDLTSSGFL
How it was run: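 Steps: seed HepG2-AhR-luc cells; allow 5 h at 37C; pin-transfer test compound or vehicle; incubate 24 h at 37C; add viability dye (30 min, 37C) and read fluorescence; add luciferase substrate (30 min, RT) and read luminescence.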

[20] = qHTS assay to identify small molecule antagonists of the estrogen receptor alpha (ER-alpha) signaling pathway using the BG1 cell line in the presence of 0.1 nM 17-beta-estradiol - cell viability counter screen (AID 1259241); note: nearly all actives have a fitted effect of over 40% in size; note: potency is the fitted concentration of half-maximal effect
How it was run: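 The cell line endogenously expresses full-length ER-alpha and carries four EREs driving luciferase. Cells are cultured 5 days hormone-free, treated 22 hr with compounds and 0.1 nM estradiol, then viability is read by fluorescence.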
Tags give direction and shape of the fitted curve or compound fluorescence and quenching.

CCCCC(CC)COC(=O)COc1ccc(Cl)cc1Cl (stereo unspecified)
Potency [1]: inactive | Potency [2]: inactive | Potency [3]: inconclusive: 62.1 µM [inhibitor, single point]

Cc1c(C(C)C)c(=O)n(-c2ccccc2)n1C
Potency [4]: inactive | Potency [5]: inactive

O=[N+]([O-])c1cccc(Cl)c1Cl
Potency [6]: inactive | Potency [7]: inactive | Potency [8]: inconclusive: 55 µM [activator, partial curve, poor fit]

FC(F)(F)/C(=N\OCC1OCCO1)c1ccc(Cl)cc1
Potency [9]: inconclusive: 17.2 µM [inhibitor, partial curve, poor fit] | Potency [3]: inactive

Cc1nnc(NS(=O)(=O)c2ccc(N)cc2)s1
Potency [2]: inconclusive: 0.841 µM [rising, partial curve, poor fit] | Potency [9]: inactive

CN1CCN(c2c(F)cc3c(=O)c(C(=O)O)cn4c3c2SCC4)CC1
Potency [10]: inconclusive: 29.8 µM [activator, single point]

CC(C)=CCOC(=O)c1ccccc1
Potency [4]: inactive | Potency [7]: inconclusive: 54.9 µM [activator, single point] | Potency [11]: inconclusive: 54.9 µM [activator, single point] | Potency [12]: inactive

FC(F)(F)C(F)(F)C(F)(F)C(F)(F)C(F)(F)C(F)(F)CCI
Potency [13]: inactive

Cc1ccc2c(c1)c1c3n2CCNC3CCC1 (stereo unspecified)
Potency [11]: inactive | Potency [12]: inconclusive: 2.98 µM [cytotoxic, full curve]

[O]=[Mo](=[O])=[O]
Potency [14]: inconclusive: 13.2 µM [falling, single point]

CCCCC1CCC(O)CC1 (stereo unspecified)
Potency [7]: inactive

O=C(O)CCCCCC(=O)O
Potency [8]: active: 22 µM | Potency [15]: inconclusive: 22 µM [activator, single point] | Potency [5]: inconclusive: 22 µM [activator, single point]

CC(NC(CCc1ccccc1)C(=O)O)C(=O)N1C(=O)N(C)CC1C(=O)O (stereo unspecified)
Potency [16]: inactive | Potency [2]: inconclusive: 15 µM [rising, full curve, poor fit]

CCCCCCCCCCCC
Potency [16]: inconclusive: 30.9 µM [activator]

C[C@@H]1CN(c2c(F)c(F)c3c(=O)c(C(=O)O)cn(C4CC4)c3c2F)C[C@H](C)N1
Potency [17]: inconclusive: 13.3 µM [inhibitor, single point]

CCCCCCCCCCCCCCCCCC#N
Potency [3]: inactive

CC[N+](C)(CC)CC
Potency [17]: inactive

O=C(O)/C=C/c1ccccc1
Potency [15]: inactive

c1ccc2c(c1)[nH]c1ccccc12
Potency [3]: inactive

C=C(C)C(=O)OC
Potency [17]: inactive

COCC(C)OC(C)=O (stereo unspecified)
Potency [13]: inactive

CCCCCCCCCOS(=O)(=O)O
Potency [13]: inactive

CN(C)CCc1c[nH]c2ccc(CS(=O)(=O)N3CCCC3)cc12
Potency [5]: inactive

O=C(O)/C=C/C(=O)O
Potency [18]: inactive

COC(=O)c1ccc(C=O)cc1
Potency [15]: inactive

CC(C)(C)c1cc(CCC(=O)NCCCCCCNC(=O)CCc2cc(C(C)(C)C)c(O)c(C(C)(C)C)c2)cc(C(C)(C)C)c1O
Potency [9]: inactive

O=C(O[C@@H](C(=O)O)[C@@H](OC(=O)c1ccccc1)C(=O)O)c1ccccc1
Potency [19]: inconclusive: 69.7 µM [activator, partial curve, poor fit] | Potency [3]: inconclusive: 5.54 µM [inhibitor, single point]

CN(C)CCN1CCOCC1
Potency [20]: inactive

NC(=O)NS(=O)(=O)c1ccc(Cl)cc1
activation [16]: inconclusive: -1.72% | Potency [18]: inconclusive: 7.5 µM [cytotoxic, single point] | Potency [11]: inactive | Potency [12]: inconclusive: 33.5 µM [rising, partial curve, poor fit]

CO[Si](CCCNCCNCCN)(OC)OC
Potency [9]: inactive

O=C(CCCCC(=O)Nc1c(I)cc(I)c(C(=O)O)c1I)Nc1c(I)cc(I)c(C(=O)O)c1I
Potency [6]: inconclusive: 9.44 µM [cytotoxic, partial curve, poor fit] | Potency [4]: active: 21.1 µM | Potency [3]: inactive

NC(=O)Cc1cccc(C(=O)c2ccccc2)c1N
Potency [19]: inconclusive: 16.8 µM [activator, partial curve] | Potency [5]: inactive

CCC(C)(C)C1CCC(=O)CC1
Potency [6]: inactive | Potency [12]: inactive

CCCCCCCCCCCCCCCC(=O)NCCO
Potency [16]: inactive | Potency [4]: inactive | Potency [20]: inconclusive: 13.3 µM [rising, single point]

C1CCCCCCCCCCC1
Potency [1]: inactive | Potency [18]: inconclusive: 0.038 µM [cytotoxic, full curve, poor fit] | activity, negative = inhibition [4]: inactive: -2.47% [at 19 µM] | Potency [14]: inconclusive: 12 µM [falling, single point]

CCCCCCC#CC(=O)OC
Potency [8]: inconclusive: 1.74 µM [activator, partial curve]

CCCCCCCC=O
Potency [18]: inactive and inconclusive: 54.9 µM [cytotoxic, single point] | Potency [14]: inconclusive: 54.9 µM [rising, partial curve, poor fit] | Potency [12]: inactive

Cc1cc(C)c(C(=O)O)c(C)c1
Potency [2]: inactive

CCOB(OCC)OCC
Potency [7]: inconclusive: 54.9 µM [activator, single point] | Potency [14]: inconclusive: 54.9 µM [falling, single point] | Potency [11]: inconclusive: 54.9 µM [activator, single point] | Potency [15]: inactive

[Ca+2]
Potency [2]: inconclusive: 0.871 µM [rising, full curve]

CCc1cccc(CC)c1N(COC)C(=O)CS(=O)(=O)O
Potency [20]: inactive

C=CC(=O)N1CCOCC1
Potency [5]: inactive

c1cc(CCCc2ccncc2)ccn1
Potency [19]: inconclusive: 61.1 µM [activator, partial curve] | Potency [4]: inconclusive: 30.6 µM [inhibitor, partial curve]
